Source: patent publication US12545637B2, “Extrahepatic targeted cationic lipid compound with high efficiency and low toxicity and its composition” (BEIJING YOUCARE KECHUANG PHARMACEUTICAL TECHNOLOGY CO., LTD., priority 2023, dated 2026)
For some of these results: At least one read-out could not be matched to a standard name with certainty. For some of these results: For at least one compound, name, drawing or mass did not settle the structure.

Tests used:
[1] = Detection of encapsulation efficiency, drug loading concentration and total RNA concentration (RiboGreen); format: physicochemical; details: LNP formulation prepared from the cationic lipid
Source text: Encapsulation efficiency is a key quality attribute of liposomes, which refers to the percentage of drug content encapsulated in the lipid bimolecular layer accounting for the total drug dose and can reflect the degree of drug encapsulation in liposomes. The Chinese Pharmacopoeia stipulates that the encapsulation efficiency should generally not be less than 80%.
The drug loading amount is the ratio of the amount of drug in the liposome to the total amount of drug and carrier in the liposome. The drug loading amount directly affects the clinical application dose of the drug. […] The drug loading concentration is proportional to the drug loading amount, and the relative proportion of the drug loading concentrations can represent the relative proportion of the drug loading amounts. The relative ratio of the total RNA concentrations may represent the relative ratio of the amounts of mRNA carried by the LNP formulations.
1×TE buffer, 0.1% Triton X-100 buffer, RiboGreen reagent (1: 200) and mRNA standard stock solution were prepared.
An appropriate amount of the sample was added to an appropriate amount of 1×TE buffer, and the mixture was diluted to obtain a solution containing approximately […] sample per 1 mL. Then the sample was added to a 96-well plate, and 50 μL of the diluted test sample or the mRNA standard stock solution was added to each well, then 1×TE buffer and 0.1% Triton X-100 buffer were added. The sample was incubated at 37° C. for 10 minutes, and 100 μL RiboGreen reagent (1:200) was added to each well of the test sample in the 96-well plate. The sample was centrifugated, and the data were read using a microplate reader, and processed.

[2] = Particle size and polydispersity index (PDI) of lipid nanoparticles by dynamic light scattering; format: physicochemical; details: for PDI: LNP formulation of the cationic lipid, 25° C.; for Particle size: LNP formulation of the cationic lipid/DSPC/cholesterol/DMG-PEG2000 49:10:39.5:1.5, 25° C.
Experimental: The particle size and polydispersity index (PDI) were determined by dynamic light scattering using Malvern laser particle size analyzer.
10 μL of the liposome solution was weighed, diluted to 1 mL with RNase-free deionized water, and added to the sample pool. Each sample was measured in triplicate. The measurement conditions were: […] scattering angle, and 25° C.

293T cells = test: Fluorescent detection of Fluc-mRNA (cell transfection efficiency of LNP formulations); format: cell-based; details: for Multiple of YK-402: RLU of YK-402 divided by RLU of the lipid named in the row; for Multiple of YK-403: RLU of YK-403 divided by RLU of the lipid named in the row; for Multiple of YK-407: RLU of YK-407 divided by RLU of the lipid named in the row; for Multiple of YK-422: RLU of YK-422 divided by RLU of the lipid named in the row; for Multiple of YK-423: RLU of YK-423 divided by RLU of the lipid named in the row; for Ratio relative to SM-102 (RLU, times that of SM-102): RLU of the lipid divided by RLU of SM-102
Experimental: Seeding plate: The cells in the culture dish were digested and counted. Cells were spread in a 96-well plate at 10,000 cells per well and in a 12-well plate at 150,000 cells per well. Cells were cultured overnight until the cells adhered to the wall.
The corresponding reagents were added according to the instructions of the Gaussia Luciferase Assay Kit, and the fluorescence expression intensity of each well was detected by an IVIS fluorescence detection system.

SMILES	Drug loading concentration [1]	Encapsulation efficiency [1]	Total RNA concentration [1]	PDI [2]	Particle size [2]	Multiple of YK-401 (293T cells)	Multiple of YK-402 (293T cells)	Multiple of YK-403 (293T cells)	Multiple of YK-407 (293T cells)	Multiple of YK-422 (293T cells)	Multiple of YK-423 (293T cells)	Ratio relative to SM-102 (RLU, times that of SM-102) (293T cells)
CCCCCCCCCCOC(=O)CCCN(CCO)CCCN(CCO)CCCC(=O)OC(CCCCCCCC)CCCCCCCC [YK-414, decyl 4-(3-((4-(heptadecan-9-yloxy)-4-oxobutyl)(2-hydroxyethyl)amino)propyl)(2-hydroxyethyl)aminobutyrate]	30.02 µg/mL	77.1%	38.96 µg/mL	23.9%	155 nm	12.63	11.36	11.82	45.90	14.49	14.02	0.26
CCCCCCCCC(CCCCCCCC)OC(=O)CCCCCCCN(CCO)CCCCCCCC(=O)OCCC(CCCCCC)CCCCCC [Compound 21, reference compound]	21.97 µg/mL	58.0%	28.89 µg/mL	16.9%	160 nm	3.71	3.34	3.47	13.49	4.26	4.12	0.89
CCCCCCCCC(CCCCCCCC)C(=O)OCCCCCCN(CCO)CCCN(CCO)CCCCCCOC(=O)C(CCCCCCCC)CCCCCCCC [YK-412, (propane-1,3-diyl-bis((2-hydroxyethyl)azanediyl))-bis(hexane-6,1-diyl)bis(2-octyldecanoate)]	28.63 µg/mL	85.7%	33.39 µg/mL	5.0%	143 nm	1.66	1.50	1.56	6.05	1.91	1.85	1.98
CCCCCCCCCCOC(=O)CCCN(CCO)CCCCN(CCO)CCCCCC(=O)OC(CCCCCCCC)CCCCCCCC [YK-421, heptadecan-9-yl 6-((4-((4-(decyloxy)-4-oxobutyl)(2-hydroxyethyl)amino)butyl)(2-hydroxyethyl)amino)hexanoate]						12.02	10.81	11.25	43.69	13.79	13.35	0.27
CCCCCCCCCCOC(=O)CCCN(CCO)CCCCCC(=O)OCC(CCCCCCCC)CCCCCCCC [YK-009, reference compound]						1.09	0.98	1.02	3.96	1.25	1.21	3.02
CCCCCCCCC(CCCCCCCC)COC(=O)CCCCCN(CCCO)CCN(CCCO)CCCCCC(=O)OCC(CCCCCCCC)CCCCCCCC [YK-422, di(2-octyldecyl) 6,6′-(ethane-1,2-diyl-bis((3-hydroxypropyl)azanediyl))dihexanoate]						0.87	0.78	0.82	3.17	1.00	0.97	
CCCCCCCCCCOC(=O)CCCCCN(CCO)CCN(CCO)CCCCCC(=O)OCC(CCCCCCCC)CCCCCCCC [YK-410, 2-octyldecyl 6-((2-hydroxyethyl)(2-((2-hydroxyethyl)(6-(decyloxy)-6-oxohexyl)amino)ethyl)amino)hexanoate]						13.75	12.37	12.87	49.98	15.77	15.27	0.24
CCCCCCCCCCCOC(=O)CCCN(CCO)CCCN(CCO)CCCCCC(=O)OC(CCCCCCCC)CCCCCCCC [YK-413, heptadecan-9-yl 6-((2-hydroxyethyl)(3-((2-hydroxyethyl)(4-oxo-4-(undecyloxy)butyl)amino)propyl)amino)hexanoate]						4.07	3.66	3.81	14.80	4.67	4.52	0.81
